These results are taken from the supplement of paper PMC7125110.

± gives the standard error. Variants at the background level are over-represented here.

B1: glmS ribozyme (parent)
chain: AUAAAAGCGCCAGAACUACAGAAAUGUAGUUGACGAGGAGGAGGUUUAUCGAAUUUUCGGCGGAUGCCUCCAAA

In one data set the parent is B1. As to the kind of experiment: self-cleavage kobs at 2500 uM GlcN6P; higher = faster cleavage; RNA array. The settings on record: with glucosamine-6-phosphate. In outline:
(§1)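 Weighted Michaelis–Menten fits across concentrations supplied kcat and KM, based on kobs from one- or two-exponential decay fits to normalised per-tile medians. The data came from barcoded ribozyme variants transcribed in situ by E. coli RNA polymerase on sequenced MiSeq chips and tracked at 37 °C by a hybridised Cy3 probe. Glucosamine-6-phosphate (40 μM to 10 mM) in HEPES/KCl/Mg(OAc)2 buffer was flowed in.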
Take U57A A64U C67U U69G: the “self-cleavage kobs at 2500 uM GlcN6P” value is 8.87e-05 ± 2.4e-05 s⁻¹.

U54G G63U: the “self-cleavage kobs at 2500 uM GlcN6P” value was less than 1e-05 s⁻¹.

With A64U U65G G66U, the “self-cleavage kobs at 2500 uM GlcN6P” value was less than 1e-05 s⁻¹.

A52U G63U U65A C70U: the “self-cleavage kobs at 2500 uM GlcN6P” value was less than 1e-05 s⁻¹.

A53U G60C C61A: the “self-cleavage kobs at 2500 uM GlcN6P” value is less than 1e-05 s⁻¹.

Regarding U49A C50U G63U, the “self-cleavage kobs at 2500 uM GlcN6P” value was less than 1e-05 s⁻¹.

Take C58A G60U G66U: the “self-cleavage kobs at 2500 uM GlcN6P” value was less than 1e-05 s⁻¹.

On to G41A G63U C70U, for which the “self-cleavage kobs at 2500 uM GlcN6P” value is less than 1e-05 s⁻¹.

As to A52U C61G C67U, the “self-cleavage kobs at 2500 uM GlcN6P” value was 8.45e-05 ± 3e-05 s⁻¹.

For G43U U45A U47G, the “self-cleavage kobs at 2500 uM GlcN6P” value is less than 1e-05 s⁻¹.

Turning to U47C U56A A64G, the “self-cleavage kobs at 2500 uM GlcN6P” value amounted to 0.000616 ± 0.00019 s⁻¹.

Consider U45G G51C, for which the “self-cleavage kobs at 2500 uM GlcN6P” value was less than 1e-05 s⁻¹.

With G43U C50U A53C C71U, the “self-cleavage kobs at 2500 uM GlcN6P” value was less than 1e-05 s⁻¹.

Regarding U45G A48U U55C, the “self-cleavage kobs at 2500 uM GlcN6P” value was found to be 8.04e-05 ± 2.8e-05 s⁻¹.

A42U U55A G62A: the “self-cleavage kobs at 2500 uM GlcN6P” value is less than 1e-05 s⁻¹.

In the case of G41C C50A U69G C70U, the “self-cleavage kobs at 2500 uM GlcN6P” value is less than 1e-05 s⁻¹.

G44U U56C U57A: the “self-cleavage kobs at 2500 uM GlcN6P” value was less than 1e-05 s⁻¹.

A53C C61A G62U: the “self-cleavage kobs at 2500 uM GlcN6P” value was less than 1e-05 s⁻¹.

In the case of G44A A48G U55A, the “self-cleavage kobs at 2500 uM GlcN6P” value is less than 1e-05 s⁻¹.

Take U45C A52C U54C: the “self-cleavage kobs at 2500 uM GlcN6P” value was less than 1e-05 s⁻¹.

As for G44U C58A G63A, the “self-cleavage kobs at 2500 uM GlcN6P” value was less than 1e-05 s⁻¹.

Consider U47A U55C U69C, for which the “self-cleavage kobs at 2500 uM GlcN6P” value was found to be 0.000127 ± 4.1e-05 s⁻¹.

As for G51C C67U, the “self-cleavage kobs at 2500 uM GlcN6P” value was less than 1e-05 s⁻¹.

For A64U C67U, the “self-cleavage kobs at 2500 uM GlcN6P” value amounted to 5.62e-05 ± 8.7e-06 s⁻¹.

With U49C C50G A64C, the “self-cleavage kobs at 2500 uM GlcN6P” value was less than 1e-05 s⁻¹.

Turning to A42G U45C U57G, the “self-cleavage kobs at 2500 uM GlcN6P” value is less than 1e-05 s⁻¹.

With A42G G51U C67U, the “self-cleavage kobs at 2500 uM GlcN6P” value was less than 1e-05 s⁻¹.

For U55G G62U G63U, the “self-cleavage kobs at 2500 uM GlcN6P” value was less than 1e-05 s⁻¹.

As for U45C G51C, the “self-cleavage kobs at 2500 uM GlcN6P” value is less than 1e-05 s⁻¹.

As for U49A G60A, the “self-cleavage kobs at 2500 uM GlcN6P” value was less than 1e-05 s⁻¹.

On to G41U U45A A52C G63U, for which the “self-cleavage kobs at 2500 uM GlcN6P” value is less than 1e-05 s⁻¹.

Consider U45C U57C C68G, for which the “self-cleavage kobs at 2500 uM GlcN6P” value was less than 1e-05 s⁻¹.

For A48U G51C C61U, the “self-cleavage kobs at 2500 uM GlcN6P” value is less than 1e-05 s⁻¹.

For G44C U54C, the “self-cleavage kobs at 2500 uM GlcN6P” value amounted to 0.000133 ± 2.4e-05 s⁻¹.

Take A42U A53C: the “self-cleavage kobs at 2500 uM GlcN6P” value worked out at 7.29e-05 ± 2e-05 s⁻¹.

The next data set covers variants of B1. Nature of the data set: self-cleavage kobs at 10000 uM GlcN6P; higher = faster cleavage; RNA array. The settings on record: with glucosamine-6-phosphate. In a few lines: as §1
As for C10G A15C C68U C71U, the “self-cleavage kobs at 10000 uM GlcN6P” value is less than 1e-05 s⁻¹.

In the case of C11U G29U G40U G62U, the “self-cleavage kobs at 10000 uM GlcN6P” value is less than 1e-05 s⁻¹.

As for C10G A14C G63U, the “self-cleavage kobs at 10000 uM GlcN6P” value was less than 1e-05 s⁻¹.

In the case of C11A G37U C68U C71U, the “self-cleavage kobs at 10000 uM GlcN6P” value is less than 1e-05 s⁻¹.

Regarding A12G G32U U49A, the “self-cleavage kobs at 10000 uM GlcN6P” value is less than 1e-05 s⁻¹.

For the variant G9C G35U G44U A53U C61U G66U, the “self-cleavage kobs at 10000 uM GlcN6P” value is less than 1e-05 s⁻¹.

For A6U A33G C34U G44U U49C U57G, the “self-cleavage kobs at 10000 uM GlcN6P” value is less than 1e-05 s⁻¹.

In the case of C8U G9C G29A C50U, the “self-cleavage kobs at 10000 uM GlcN6P” value is less than 1e-05 s⁻¹.

For C10U G13A G40U, the “self-cleavage kobs at 10000 uM GlcN6P” value was less than 1e-05 s⁻¹.

A6C G9U C11A G62A C71U: the “self-cleavage kobs at 10000 uM GlcN6P” value is less than 1e-05 s⁻¹.

With A6U U31C G38A C70A, the “self-cleavage kobs at 10000 uM GlcN6P” value was less than 1e-05 s⁻¹.

A6C A42U G51C: the “self-cleavage kobs at 10000 uM GlcN6P” value was less than 1e-05 s⁻¹.

As to A12U G13U G29C, the “self-cleavage kobs at 10000 uM GlcN6P” value was determined as 3.79e-05 ± 1.5e-05 s⁻¹.

In the case of A12C A52U C67G, the “self-cleavage kobs at 10000 uM GlcN6P” value was found to be 0.000146 ± 3.5e-05 s⁻¹.

As to C10A U57G G60U, the “self-cleavage kobs at 10000 uM GlcN6P” value is less than 1e-05 s⁻¹.

In the case of A6C A48C A64G, the “self-cleavage kobs at 10000 uM GlcN6P” value was less than 1e-05 s⁻¹.

C11G A14U G37U A39G G43U A52G: the “self-cleavage kobs at 10000 uM GlcN6P” value is less than 1e-05 s⁻¹.

As to C8G U49A A53G U65C C68U, the “self-cleavage kobs at 10000 uM GlcN6P” value is less than 1e-05 s⁻¹.

Consider C11U G43U C58U G62U G63U, for which the “self-cleavage kobs at 10000 uM GlcN6P” value was less than 1e-05 s⁻¹.

Regarding C10U G62A C70U C71G, the “self-cleavage kobs at 10000 uM GlcN6P” value is less than 1e-05 s⁻¹.

Turning to A6C C16G G29C G37C G41U A52C, the “self-cleavage kobs at 10000 uM GlcN6P” value is less than 1e-05 s⁻¹.

Consider G44A A48G U55A, for which the “self-cleavage kobs at 10000 uM GlcN6P” value is less than 1e-05 s⁻¹.

For C10G G40U U46C C71U, the “self-cleavage kobs at 10000 uM GlcN6P” value is less than 1e-05 s⁻¹.

G13A G37U A42U A48U: the “self-cleavage kobs at 10000 uM GlcN6P” value is less than 1e-05 s⁻¹.

Turning to C8U U30G G37A A52C G66C C67G, the “self-cleavage kobs at 10000 uM GlcN6P” value was less than 1e-05 s⁻¹.

For C10A, the “self-cleavage kobs at 10000 uM GlcN6P” value was less than 1e-05 s⁻¹.

Consider G7U C61U C70A, for which the “self-cleavage kobs at 10000 uM GlcN6P” value was less than 1e-05 s⁻¹.

Consider A12U A39G G63C, for which the “self-cleavage kobs at 10000 uM GlcN6P” value is less than 1e-05 s⁻¹.

For C8A G37C A39G C58A G60C, the “self-cleavage kobs at 10000 uM GlcN6P” value is less than 1e-05 s⁻¹.

Take A12C A15U U31C: the “self-cleavage kobs at 10000 uM GlcN6P” value came out at 6.96e-05 ± 1.7e-05 s⁻¹.

Turning to G7U U31G A39G G51A, the “self-cleavage kobs at 10000 uM GlcN6P” value is less than 1e-05 s⁻¹.

Consider G51C C67U, for which the “self-cleavage kobs at 10000 uM GlcN6P” value was less than 1e-05 s⁻¹.

Regarding A64U C67U, the “self-cleavage kobs at 10000 uM GlcN6P” value was found to be 5.31e-05 ± 6.3e-06 s⁻¹.

Turning to C10U A12U U31C U46C, the “self-cleavage kobs at 10000 uM GlcN6P” value is less than 1e-05 s⁻¹.

Consider G13U C16U A53U G62U, for which the “self-cleavage kobs at 10000 uM GlcN6P” value is less than 1e-05 s⁻¹.

With G7U A15C A48U, the “self-cleavage kobs at 10000 uM GlcN6P” value was less than 1e-05 s⁻¹.

As to C8A A14U A39C, the “self-cleavage kobs at 10000 uM GlcN6P” value is less than 1e-05 s⁻¹.

On to C10U U30A G35U, for which the “self-cleavage kobs at 10000 uM GlcN6P” value is less than 1e-05 s⁻¹.

For the variant A12G U55C U69A, the “self-cleavage kobs at 10000 uM GlcN6P” value is less than 1e-05 s⁻¹.

A6G G13C G38A A42U G63C U69G C70U: the “self-cleavage kobs at 10000 uM GlcN6P” value was less than 1e-05 s⁻¹.

Consider A6G A33U G44U G62C, for which the “self-cleavage kobs at 10000 uM GlcN6P” value was less than 1e-05 s⁻¹.

Turning to C8U C11U G32A G37U G43A U45C, the “self-cleavage kobs at 10000 uM GlcN6P” value is less than 1e-05 s⁻¹.

Regarding G13U A15U C34A G44A U47A A48G C50G A53G, the “self-cleavage kobs at 10000 uM GlcN6P” value is less than 1e-05 s⁻¹.

In the case of C11G A12G G37A C68G, the “self-cleavage kobs at 10000 uM GlcN6P” value was less than 1e-05 s⁻¹.

With G44C U54C, the “self-cleavage kobs at 10000 uM GlcN6P” value stood at 0.000179 ± 3e-05 s⁻¹.

Turning to A6U G38A A64C C68A, the “self-cleavage kobs at 10000 uM GlcN6P” value is less than 1e-05 s⁻¹.

Regarding C11U G43U G63C A64U, the “self-cleavage kobs at 10000 uM GlcN6P” value was less than 1e-05 s⁻¹.

For the variant C10A U57C C61U, the “self-cleavage kobs at 10000 uM GlcN6P” value was less than 1e-05 s⁻¹.

Regarding G13C A14G U69G, the “self-cleavage kobs at 10000 uM GlcN6P” value is 3.8e-05 ± 1.6e-05 s⁻¹.

Take A42U A53C: the “self-cleavage kobs at 10000 uM GlcN6P” value was found to be 0.000113 ± 1.6e-05 s⁻¹.

For the variant A12U A42G C58G, the “self-cleavage kobs at 10000 uM GlcN6P” value was 0.00079 ± 0.00015 s⁻¹.
